Hit rate of the full screen: of about 94,000 compounds, about 6,200 (6.6%) were called active. Inconclusive means that the source gave no clear call. Such entries were picked first, then a sample of the others. Calls come from the whole dose curve; as a rule, active = well fitted inhibition curve with a large enough effect; inconclusive = small, poorly fitted or top-dose-only effect; inactive = flat fitted curve, though single readings scatter. Where the call is inconclusive, the potency comes from a doubtful curve fit.
Assay: Cytotoxic Profiling in HEK 293 Cell Line of Diverse Libraries Using Quantitative High-Throughput Screening; note: nearly all actives have a fitted effect of over 60% in size
Conditions: HEK 293 viability, ATP luminescence (CellTiter-Glo), 48-72 h; activity change, negative = cytotoxicity: at 115 µM (top of the series) unless noted; series mostly up to 115 µM
In short: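 HEK 293 cells at 250 cells/well were exposed to compounds by pintool transfer for 48 or 72 hr at 37 degree Celsius, 5% CO2. Viability was read as ATP-coupled luminescence with CellTiter-Glo after 10 min at room temperature.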
% is set by controls: 0 for no effect and ±100 for the full control effect; potency is the fitted concentration of half-maximal effect; tags give direction and shape of the fitted curve.

Question: Which Potency does the source give for `Cc1cccc(-n2nc(-c3c(C)nc4scc(CC(=O)NC(C)C(C)C)n4c3=O)cc2C)c1C` (centres undefined) here?
Answer: inconclusive: 100 µM [inhibitor, single point]

Question: With `COc1ccc(-c2ccccc2NC(=O)C2CCCN(Cc3cccc(F)c3F)C2)cc1` (centres undefined) as the compound, how does the Potency read?
Answer: inconclusive: 50.1 µM [inhibitor, partial curve, poor fit]

Question: With `COC[C@@]12CC[C@@H](N3CCOCC3)C[C@H]1CCN(Cc1cccc3nonc13)C2` as the compound, how does the “activity change, negative = cytotoxicity” value read?
Answer: inactive: -18.1%

Question: With `Cc1ccc(Nc2ccnc(N3CCC(C(=O)N4CCOCC4)CC3)n2)cc1` as the compound, how does the Potency read?
Answer: inconclusive: 89.1 µM [inhibitor, partial curve, poor fit]

Question: With `Cc1ccc(NC(=O)CCNc2c(C)nc3cnccn23)c(F)c1` as the compound, how does the “activity change, negative = cytotoxicity” value read?
Answer: inactive: -12.2%

Question: For `O=C(c1cn[nH]c1)N1CC2(CN(Cc3cccc(OC(F)(F)F)c3)CC2COc2ccccc2)C1` (centres undefined), which Potency is on record?
Answer: inconclusive: 50.1 µM [inhibitor, partial curve, poor fit]

Question: Which Potency does the source give for `CC(=O)c1cc(CN2CCC(n3nccc3NC(=O)Cc3ccccc3)CC2)cs1` here?
Answer: inconclusive: 50.1 µM [inhibitor, partial curve, poor fit]

Question: With `COc1ccc(-c2ccc(C(=O)N3CCN(C(=O)Nc4ccccc4)CC3)cc2)nn1` as the compound, how does the “activity change, negative = cytotoxicity” value read?
Answer: inactive: -18.4%

Question: Which Potency does the source give for `CCOC(=O)C1(Cc2ccccc2F)CCCN(C(=O)c2ccc3c(c2)OCCO3)C1` (centres undefined) here?
Answer: inconclusive: 56.2 µM [inhibitor, partial curve, poor fit]

Question: For `CCN1CCN(CCNC(=O)c2cccc3c2CCN3C(=O)Nc2ccc(C)cc2)CC1`, which Potency is on record?
Answer: inconclusive: 89.1 µM [inhibitor, single point]

Question: With `COc1cccc(N2CC3(COCC2=O)CN(c2ccc(C(F)(F)F)cn2)C3)c1` as the compound, how does the Potency read?
Answer: inconclusive: 89.1 µM [inhibitor, partial curve, poor fit]

Question: Which Potency does the source give for `O=C(NCc1cccc(Br)c1)c1noc(-c2ccc(F)cc2)n1` here?
Answer: active: 25.1 µM

Question: For `Cc1ccccc1C(=O)N1CCCC1C(=O)N1CCC(c2nc3ccncc3[nH]2)C1` (centres undefined), which “activity change, negative = cytotoxicity” value is on record?
Answer: inactive: -3.05%

Question: Which Potency does the source give for `COc1ccccc1N1CCCc2ncc(C(=O)N3CCC[C@@H]3c3ccc(F)cc3)cc21` here?
Answer: inconclusive: 100 µM [inhibitor, partial curve]

Question: For `O=C1CC2(CCN(Cc3ccc(C(F)(F)F)cc3F)C2)C(=O)N1` (centres undefined), which “activity change, negative = cytotoxicity” value is on record?
Answer: inactive: -32.3%

Question: Which Potency does the source give for `CCC1=C(C(=O)OC)C(c2ccc(C)cc2)N2C(CC(=O)N3CCCC3)=CSC2=N1` (centres undefined) here?
Answer: inconclusive: 56.2 µM [inhibitor, partial curve, poor fit]

Question: With `O=C(c1cccs1)N1CCC(N2C(=O)C(OCC3CC3)C23CCCCC3)CC1` (centres undefined) as the compound, how does the Potency read?
Answer: inconclusive: 100 µM [inhibitor, single point]

Question: Which “activity change, negative = cytotoxicity” value does the source give for `c1ccc(-c2noc(-c3cncnc3Nc3ccc4c(c3)OCCO4)n2)cc1` here?
Answer: inactive: 3.7%

Question: With `COCCNC(=O)c1ccc(-c2ccc(N3CCCCCC3)nc2)cc1` as the compound, how does the Potency read?
Answer: inconclusive: 56.2 µM [inhibitor, partial curve, poor fit]

Question: Which Potency does the source give for `CCc1ccc(Nc2nc(-c3ccccc3F)no2)cc1` here?
Answer: inconclusive: 39.8 µM [inhibitor, full curve, poor fit]

Question: Which Potency does the source give for `CN(CC[C@@H]1CC[C@H](O)[C@@H](C(=O)N(C)Cc2ccccc2)O1)Cc1ccccc1` here?
Answer: inconclusive: 126 µM [inhibitor, single point]

Question: With `O=C(NCCN1CCCCC1)c1ccc(-c2ccc(N3CCSCC3)nc2)cc1` as the compound, how does the Potency read?
Answer: active: 35.5 µM

Question: Which Potency does the source give for `O=C1[C@@H]2C[C@@H](CN2Cc2ccc(C(F)(F)F)cc2)Oc2ccccc2N1Cc1cccnc1` here?
Answer: active: 35.5 µM

Question: Which Potency does the source give for `COC(=O)[C@@H]1Cc2ncn(Cc3ccc(Cl)cc3)c2CN1S(=O)(=O)c1cccc(C(F)(F)F)c1` here?
Answer: inconclusive: 89.1 µM [inhibitor, single point]

Question: With `Cc1ccc(C)c(-n2nc(-c3c(C)nc4scc(CC(=O)NC(C)C(C)C)n4c3=O)cc2C)c1` (centres undefined) as the compound, how does the Potency read?
Answer: inconclusive: 50.1 µM [inhibitor, partial curve, poor fit]

Question: For `CN1CCCN(S(=O)(=O)c2ccc(Cl)cc2)c2ccccc21`, which Potency is on record?
Answer: inconclusive: 50.1 µM [inhibitor, partial curve, poor fit]

Question: With `COc1ccc(-c2cc(N3CCC(NC(=O)c4cc(Cl)ccc4F)C3)n[nH]2)cc1` (centres undefined) as the compound, how does the Potency read?
Answer: inconclusive: 44.7 µM [inhibitor, partial curve]

Question: Which Potency does the source give for `CCOCCCNC(=O)c1cc(-c2cccc(F)c2)nc2c1cnn2C` here?
Answer: inconclusive: 39.8 µM [inhibitor, full curve, poor fit]

Question: With `O=C(c1ccccc1Cl)N1CCCC(C(=O)N2CCCC(c3nc4ccncc4[nH]3)C2)C1` (centres undefined) as the compound, how does the “activity change, negative = cytotoxicity” value read?
Answer: inactive: 3.67%

Question: Which Potency does the source give for `COc1ccccc1-c1cc(C(=O)NCCc2ccc(Cl)cc2)nn2cnnc12` here?
Answer: inconclusive: 50.1 µM [inhibitor, partial curve, poor fit]

Question: Which Potency does the source give for `COc1cncc(Nc2cnc3ccc(N(C)Cc4ccc(F)cc4)nn23)c1` here?
Answer: inconclusive: 89.1 µM [inhibitor, partial curve, poor fit]

Question: Which Potency does the source give for `Cc1noc(C)c1[S+](=O)([O-])N1CCC2(CCN(Cc3cccs3)c3ccccc3O2)CC1` here?
Answer: inconclusive: 39.8 µM [inhibitor, full curve]

Question: Which “activity change, negative = cytotoxicity” value does the source give for `CCCCNC(=O)C1CCN(C(=O)c2ncn3c2COC(c2ccccc2)C3)CC1` (centres undefined) here?
Answer: inactive: -2.25%

Question: Which Potency does the source give for `CCO[C@H]1CN(C(=O)c2cccc(-c3cccc(F)c3)c2)C[C@@H]1O` here?
Answer: inconclusive: 89.1 µM [inhibitor, single point]

Question: Which “activity change, negative = cytotoxicity” value does the source give for `Cc1csc(CNC(=O)C2CCCN(C3CCN(Cc4cccnc4)CC3)C2)n1` (centres undefined) here?
Answer: inactive: 0.0642%

Question: For `Cc1onc(C(=O)N2CCC(CCOc3ccc(F)cc3)C2)c1Cn1cc(Cl)cn1` (centres undefined), which Potency is on record?
Answer: inconclusive: 31.6 µM [inhibitor, partial curve, poor fit]

Question: With `COc1ccccc1-c1nnc2ccc(C(=O)NCc3ccc(F)c(F)c3)cn12` as the compound, how does the Potency read?
Answer: inconclusive: 89.1 µM [inhibitor, single point]

Question: For `CCOC(=O)[C@@H]1CN(C(=O)Cc2ccc(F)cc2)[C@H]2c3ccccc3O[C@@H]12`, which Potency is on record?
Answer: inconclusive: 63.1 µM [inhibitor, partial curve, poor fit]

Question: With `CC(=O)N1CCC(C2CCN(C(=O)C3CC=CC3)C2)CC1` (centres undefined) as the compound, how does the “activity change, negative = cytotoxicity” value read?
Answer: inactive: -7%

Question: Which Potency does the source give for `CC(C)CN(C)C(=O)c1cc(-c2cnn(C(C)C)c2)nc2ccc(F)cc12` here?
Answer: inconclusive: 44.7 µM [inhibitor, partial curve, poor fit]

Question: With `CC(C)C1CN(C(=O)c2cncc(F)c2)CCC(=O)N1Cc1ccc(F)cc1` (centres undefined) as the compound, how does the Potency read?
Answer: inconclusive: 31.6 µM [inhibitor, full curve]

Question: Which Potency does the source give for `Cn1nc(C(=O)N2CCCN(c3cc(-c4ccccc4)[nH]n3)CC2)c2ccccc21` here?
Answer: active: 28.2 µM

Question: For `COc1ccc2[nH]c3c(c2c1)CCNC31CCN(C(=O)c2ocnc2C)CC1`, which Potency is on record?
Answer: inconclusive: 10 µM [inhibitor, full curve, poor fit]

Question: With `Cc1nn(-c2ccc(F)cc2)c(Oc2ccc(F)cc2F)c1CCC(=O)N1CCSCC1` as the compound, how does the Potency read?
Answer: inconclusive: 44.7 µM [inhibitor, partial curve, poor fit]

Question: For `CC1=C[C@@H](CNCc2cccnc2)[C@H](C(C)C)C[C@H]1Cc1nnc(-c2ccc([N+](=O)[O-])cc2)o1`, which Potency is on record?
Answer: active: 11.2 µM

Question: Which “activity change, negative = cytotoxicity” value does the source give for `CCn1ccc2sc(C)c(C(=O)NCc3cccc(Cl)c3)c2c1=O` here?
Answer: inactive: -28%

Question: With `CC1=C[C@@H](CNC(=O)NC2CCCCC2)[C@H](C(C)C)C[C@H]1Cc1nc2c(C)cccc2[nH]1` as the compound, how does the “activity change, negative = cytotoxicity” value read?
Answer: inactive: -9.89%

Question: Which “activity change, negative = cytotoxicity” value does the source give for `COc1cccc(-c2cccc(C(=O)N3CCCC3C(=O)N3CCN(C)CC3)c2)c1` (centres undefined) here?
Answer: inactive: -20.5%

Question: With `CN1C[C@H](C(=O)Nc2cccc(F)c2)C[C@H]1c1cccc(C(F)(F)F)c1` as the compound, how does the Potency read?
Answer: active: 63.1 µM

Question: With `CC(C)[C@H]1CN(C2CCOCC2)C[C@@H]1NC(=O)CCc1nncn1C` as the compound, how does the “outcome” value read?
Answer: inactive

Question: With `CCC(CC)C(=O)N1CCc2nc(OCCOC)ccc2C1` as the compound, how does the “activity change, negative = cytotoxicity” value read?
Answer: inactive: -0.358%

Question: Which Potency does the source give for `O=C(NCCc1ccccc1)C1CCCCN1Cc1ccc(-c2cccs2)cc1` (centres undefined) here?
Answer: inconclusive: 50.1 µM [inhibitor, partial curve, poor fit]

Question: For `O=[S+]([O-])(Cc1ccccc1)N1C[C@@H](CO)[C@@H]2Oc3ccc(Cl)cc3[C@@H]21`, which Potency is on record?
Answer: inconclusive: 56.2 µM [inhibitor, partial curve, poor fit]

Question: Which Potency does the source give for `CNc1nccc(N2CCC(CC(=O)NCCCN3CCC(C)CC3)CC2)n1` here?
Answer: inconclusive: 50.1 µM [inhibitor, partial curve, poor fit]

Question: With `Cc1cc(N2CCC3(CCCN(CC4CCC4)C3=O)C2)nc2ccccc12` (centres undefined) as the compound, how does the Potency read?
Answer: active: 31.6 µM

Question: With `CC(=O)N1CCC(C2CCN(C(=O)CCCc3nc4ccccc4[nH]3)C2)CC1` (centres undefined) as the compound, how does the “activity change, negative = cytotoxicity” value read?
Answer: inactive: -4.93%

Question: With `Cc1ccc(SC2CCN(C(=O)c3cn(CCc4ccccc4)nn3)CC2)cc1` as the compound, how does the Potency read?
Answer: active: 89.1 µM

Question: With `O=C(c1ccc(Cl)cc1)N1CC2(CCCN2CC2CC2)Cc2ccccc21` (centres undefined) as the compound, how does the Potency read?
Answer: inconclusive: 50.1 µM [inhibitor, partial curve, poor fit]

Question: Which Potency does the source give for `C[C@]1(CO)[C@H]2Cc3sc(NC(=O)c4cccc(F)c4)nc3[C@@H](CC(=O)N3CCCCC3)[C@]2(C)CC[C@H]1O` here?
Answer: inconclusive: 79.4 µM [inhibitor, partial curve, poor fit]

Question: Which “activity change, negative = cytotoxicity” value does the source give for `COc1ccc(CCNC(=O)C2CCCN2C(=O)c2cccc(-c3cccnc3)c2)cc1` (centres undefined) here?
Answer: inactive: -25.4%

Question: For `O=C(c1ccccc1)N1CCN(C(=O)c2nc3cccnc3n(Cc3ccccc3)c2=O)CC1`, which “activity change, negative = cytotoxicity” value is on record?
Answer: inactive: 0.311%

Question: For `COc1ccc(-c2cn3cc(C(=O)NCc4ccccn4)nc3s2)cc1`, which Potency is on record?
Answer: inconclusive: 89.1 µM [inhibitor, single point]

Question: Which “activity change, negative = cytotoxicity” value does the source give for `COc1ccc(-c2nc(C3CC3)nc3c2CN([S+](=O)([O-])c2onc(C)c2C)CC3)cc1` here?
Answer: inactive: -11%

Question: For `COc1ccc2[nH]c3c(c2c1)CCNC31CCN(C(=O)c2ccco2)CC1`, which Potency is on record?
Answer: inconclusive: 39.8 µM [inhibitor, partial curve]
